{"source": "the supplement of paper PMC8728848", "binders": {"B1": {"name": "SSR2 (Sclerotium rolfsii) (protein)", "chain": "MVYKITVRVYQTNPDAFFHPVEKTVWKYANGGTWSITDDQHVLTMGGSGTSGTLRFHADNGESFTATFGVHNYKRWCDIVTNLAADETGMVINQQYYSQKNREEARERQLSNYQVKNAKGRNFQIVYTEAEGNDLHANLIIG"}}, "test_in_all_cases": "glycan array binding signal (z-score within array); higher = stronger binding", "details_in_all_cases": "glycan notation: IUPAC condensed, linker removed", "key": {"[1]": {"target": "Neu5Ac(a2-6)Gal(b1-4)GlcNAc(b1-3)Gal(b1-4)GlcNAc(b1-3)Gal(b1-4)GlcNAc", "method_in_brief": "(§1)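 From the Consortium for Functional Glycomics database, 3228 arrays were curated, keeping only those whose protein sequence was available. Binding is given as a within-array Z-score averaged across arrays sharing a protein sequence and across linkers. Negative Z-scores can be read as non-binding.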"}, "[2]": {"target": "Neu5Ac(a2-6)Gal(b1-4)GlcNAc(b1-3)Gal(b1-4)GlcNAc(b1-3)Gal(b1-4)GlcNAc(b1-2)Man(a1-3)[Neu5Ac(a2-6)Gal(b1-4)GlcNAc(b1-3)Gal(b1-4)GlcNAc(b1-3)Gal(b1-4)GlcNAc(b1-2)Man(a1-6)]GalNAc", "method_in_brief": "as §1"}, "[3]": {"target": "Neu5Ac(a2-6)Gal(b1-4)GlcNAc(b1-3)Gal(b1-4)GlcNAc(b1-3)GalNAc", "method_in_brief": "as §1"}, "[4]": {"target": "Neu5Ac(a2-6)Gal(b1-4)GlcNAc(b1-3)Gal(b1-4)GlcNAc(b1-3)[Neu5Ac(a2-6)Gal(b1-4)GlcNAc(b1-3)Gal(b1-4)GlcNAc(b1-6)]GalNAc", "method_in_brief": "as §1"}, "[5]": {"target": "Neu5Ac(a2-6)Gal(b1-4)GlcNAc(b1-3)Gal(b1-4)GlcNAc(b1-6)[Gal(b1-3)]GalNAc", "method_in_brief": "as §1"}, "[6]": {"target": "Neu5Ac(a2-6)Gal(b1-4)GlcNAc(b1-3)Gal(b1-4)[Fuc(a1-3)]GlcNAc(b1-3)Gal(b1-4)[Fuc(a1-3)]GlcNAc", "method_in_brief": "as §1"}, "[7]": {"target": "Neu5Ac(a2-6)Gal(b1-4)GlcNAc(b1-3)GalNAc", "method_in_brief": "as §1"}, "[8]": {"target": "Neu5Ac(a2-6)Gal(b1-4)GlcNAc(b1-3)[Neu5Ac(a2-6)Gal(b1-4)GlcNAc(b1-6)]GalNAc", "method_in_brief": "as §1"}, "[9]": {"target": "Neu5Ac(a2-6)Gal(b1-4)GlcNAc(b1-6)GalNAc", "method_in_brief": "as §1"}, "[10]": {"target": "Neu5Ac(a2-6)Gal(b1-4)GlcNAc(b1-6)[Gal(b1-3)GlcNAc(b1-3)]Gal(b1-4)Glc", "method_in_brief": "as §1"}, "[11]": {"target": "Neu5Ac(a2-6)Gal(b1-4)GlcNAc(b1-6)[Gal(b1-3)]GalNAc", "method_in_brief": "as §1"}, "[12]": {"target": "Neu5Ac(a2-6)Gal(b1-4)GlcNAc6S", "method_in_brief": "as §1"}, "[13]": {"target": "Neu5Ac(a2-6)GalNAc", "method_in_brief": "as §1"}, "[14]": {"target": "Neu5Ac(a2-6)GalNAc(b1-4)GlcNAc", "method_in_brief": "as §1"}, "[15]": {"target": "Neu5Ac(a2-6)GalNAc(b1-4)GlcNAc6S", "method_in_brief": "as §1"}, "[16]": {"target": "Neu5Ac(a2-6)GlcNAc(b1-4)GlcNAc", "method_in_brief": "as §1"}, "[17]": {"target": "Neu5Ac(a2-6)GlcNAc(b1-4)GlcNAc(b1-4)GlcNAc", "method_in_brief": "as §1"}, "[18]": {"target": "Neu5Ac(a2-8)Neu5Ac", "method_in_brief": "as §1"}, "[19]": {"target": "Neu5Ac(a2-8)Neu5Ac(a2-3)Gal(b1-3)GalNAc(b1-4)[Neu5Ac(a2-3)]Gal(b1-4)Glc", "method_in_brief": "as §1"}, "[20]": {"target": "Neu5Ac(a2-8)Neu5Ac(a2-3)Gal(b1-3)GalNAc(b1-4)[Neu5Ac(a2-8)Neu5Ac(a2-3)]Gal(b1-4)Glc", "method_in_brief": "as §1"}, "[21]": {"target": "Neu5Ac(a2-8)Neu5Ac(a2-3)Gal(b1-4)Glc", "method_in_brief": "as §1"}, "[22]": {"target": "Neu5Ac(a2-8)Neu5Ac(a2-3)Gal(b1-4)GlcNAc", "method_in_brief": "as §1"}, "[23]": {"target": "Neu5Ac(a2-8)Neu5Ac(a2-3)[Gal(b1-3)GalNAc(b1-4)]Gal(b1-4)Glc", "method_in_brief": "as §1"}, "[24]": {"target": "Neu5Ac(a2-8)Neu5Ac(a2-3)[GalNAc(b1-4)]Gal(b1-4)Glc", "method_in_brief": "as §1"}, "[25]": {"target": "Neu5Ac(a2-8)Neu5Ac(a2-8)Neu5Ac", "method_in_brief": "as §1"}, "[26]": {"target": "Neu5Ac(a2-8)Neu5Ac(a2-8)Neu5Ac(a2-3)Gal(b1-4)Glc", "method_in_brief": "as §1"}, "[27]": {"target": "Neu5Ac(a2-8)Neu5Ac(a2-8)Neu5Ac(a2-3)[Gal(b1-3)GalNAc(b1-4)]Gal(b1-4)Glc", "method_in_brief": "as §1"}, "[28]": {"target": "Neu5Ac(a2-8)Neu5Ac(a2-8)Neu5Ac(a2-3)[GalNAc(b1-4)]Gal(b1-4)Glc", "method_in_brief": "as §1"}, "[29]": {"target": "Neu5Ac(a2-8)Neu5Ac(a2-8)Neu5Ac(a2-8)Neu5Ac(a2-3)[GalNAc(b1-4)]Gal(b1-4)Glc", "method_in_brief": "as §1"}, "[30]": {"target": "Neu5Ac(a2-8)Neu5Gc(a2-3)Gal(b1-4)GlcNAc", "method_in_brief": "as §1"}, "[31]": {"target": "Neu5Ac(b2-6)Gal(b1-4)GlcNAc", "method_in_brief": "as §1"}, "[32]": {"target": "Neu5Ac(b2-6)GalNAc", "method_in_brief": "as §1"}, "[33]": {"target": "Neu5Ac9Ac(a2-3)Gal(b1-3)GlcNAc", "method_in_brief": "as §1"}, "[34]": {"target": "Neu5Ac9Ac(a2-3)Gal(b1-4)GlcNAc", "method_in_brief": "as §1"}, "[35]": {"target": "Neu5Ac9Ac(a2-6)Gal(b1-4)GlcNAc", "method_in_brief": "as §1"}, "[36]": {"target": "Neu5Gc(a2-3)Gal(b1-3)GlcNAc", "method_in_brief": "as §1"}, "[37]": {"target": "Neu5Gc(a2-3)Gal(b1-3)[Fuc(a1-4)]GlcNAc", "method_in_brief": "as §1"}, "[38]": {"target": "Neu5Gc(a2-3)Gal(b1-4)Glc", "method_in_brief": "as §1"}, "[39]": {"target": "Neu5Gc(a2-3)Gal(b1-4)GlcNAc", "method_in_brief": "as §1"}, "[40]": {"target": "Neu5Gc(a2-3)Gal(b1-4)GlcNAc(b1-3)Gal(b1-4)GlcNAc(b1-2)Man(a1-3)[Neu5Gc(a2-3)Gal(b1-4)GlcNAc(b1-3)Gal(b1-4)GlcNAc(b1-2)Man(a1-6)]Man(b1-4)GlcNAc(b1-4)GlcNAc", "method_in_brief": "as §1"}, "[41]": {"target": "Neu5Gc(a2-3)Gal(b1-4)[Fuc(a1-3)]GlcNAc", "method_in_brief": "as §1"}, "[42]": {"target": "Neu5Gc(a2-6)Gal(b1-4)GlcNAc", "method_in_brief": "as §1"}, "[43]": {"target": "Neu5Gc(a2-6)GalNAc", "method_in_brief": "as §1"}, "[44]": {"target": "Neu5Gc(a2-8)Neu5Ac(a2-3)Gal(b1-4)GlcNAc", "method_in_brief": "as §1"}, "[45]": {"target": "Neu5Gc(a2-8)Neu5Gc(a2-3)Gal(b1-4)GlcNAc", "method_in_brief": "as §1"}, "[46]": {"target": "Neu5Gc(a2-8)Neu5Gc(a2-3)Gal(b1-4)GlcNAc(b1-3)Gal(b1-4)GlcNAc", "method_in_brief": "as §1"}, "[47]": {"target": "Neu5Gc(a2-8)Neu5Gc(a2-6)Gal(b1-4)GlcNAc", "method_in_brief": "as §1"}, "[48]": {"target": "Neu5Gc(b2-6)Gal(b1-4)GlcNAc", "method_in_brief": "as §1"}}, "note": "This is one part of the list."}
{"binder": "B1", "values": [{"measurement": "glycan array binding signal (z-score)", "setting": "[1]", "value": -0.298}, {"measurement": "glycan array binding signal (z-score)", "setting": "[2]", "value": -0.199}, {"measurement": "glycan array binding signal (z-score)", "setting": "[3]", "value": -0.283}, {"measurement": "glycan array binding signal (z-score)", "setting": "[4]", "value": -0.223}, {"measurement": "glycan array binding signal (z-score)", "setting": "[5]", "value": 0.175}, {"measurement": "glycan array binding signal (z-score)", "setting": "[6]", "value": -0.282}, {"measurement": "glycan array binding signal (z-score)", "setting": "[7]", "value": -0.24}, {"measurement": "glycan array binding signal (z-score)", "setting": "[8]", "value": -0.281}, {"measurement": "glycan array binding signal (z-score)", "setting": "[9]", "value": -0.259}, {"measurement": "glycan array binding signal (z-score)", "setting": "[10]", "value": -0.293}, {"measurement": "glycan array binding signal (z-score)", "setting": "[11]", "value": 0.934}, {"measurement": "glycan array binding signal (z-score)", "setting": "[12]", "value": -0.277}, {"measurement": "glycan array binding signal (z-score)", "setting": "[13]", "value": -0.284}, {"measurement": "glycan array binding signal (z-score)", "setting": "[14]", "value": -0.288}, {"measurement": "glycan array binding signal (z-score)", "setting": "[15]", "value": -0.285}, {"measurement": "glycan array binding signal (z-score)", "setting": "[16]", "value": -0.287}, {"measurement": "glycan array binding signal (z-score)", "setting": "[17]", "value": -0.292}, {"measurement": "glycan array binding signal (z-score)", "setting": "[18]", "value": -0.281}, {"measurement": "glycan array binding signal (z-score)", "setting": "[19]", "value": -0.271}, {"measurement": "glycan array binding signal (z-score)", "setting": "[20]", "value": -0.278}, {"measurement": "glycan array binding signal (z-score)", "setting": "[21]", "value": -0.288}, {"measurement": "glycan array binding signal (z-score)", "setting": "[22]", "value": -0.289}, {"measurement": "glycan array binding signal (z-score)", "setting": "[23]", "value": -0.287}, {"measurement": "glycan array binding signal (z-score)", "setting": "[24]", "value": -0.279}, {"measurement": "glycan array binding signal (z-score)", "setting": "[25]", "value": -0.286}, {"measurement": "glycan array binding signal (z-score)", "setting": "[26]", "value": -0.277}, {"measurement": "glycan array binding signal (z-score)", "setting": "[27]", "value": -0.278}, {"measurement": "glycan array binding signal (z-score)", "setting": "[28]", "value": -0.267}, {"measurement": "glycan array binding signal (z-score)", "setting": "[29]", "value": -0.285}, {"measurement": "glycan array binding signal (z-score)", "setting": "[30]", "value": -0.277}, {"measurement": "glycan array binding signal (z-score)", "setting": "[31]", "value": -0.277}, {"measurement": "glycan array binding signal (z-score)", "setting": "[32]", "value": -0.282}, {"measurement": "glycan array binding signal (z-score)", "setting": "[33]", "value": -0.282}, {"measurement": "glycan array binding signal (z-score)", "setting": "[34]", "value": -0.236}, {"measurement": "glycan array binding signal (z-score)", "setting": "[35]", "value": -0.291}, {"measurement": "glycan array binding signal (z-score)", "setting": "[36]", "value": -0.29}, {"measurement": "glycan array binding signal (z-score)", "setting": "[37]", "value": -0.28}, {"measurement": "glycan array binding signal (z-score)", "setting": "[38]", "value": -0.276}, {"measurement": "glycan array binding signal (z-score)", "setting": "[39]", "value": -0.298}, {"measurement": "glycan array binding signal (z-score)", "setting": "[40]", "value": -0.277}, {"measurement": "glycan array binding signal (z-score)", "setting": "[41]", "value": -0.284}, {"measurement": "glycan array binding signal (z-score)", "setting": "[42]", "value": -0.28}, {"measurement": "glycan array binding signal (z-score)", "setting": "[43]", "value": -0.292}, {"measurement": "glycan array binding signal (z-score)", "setting": "[44]", "value": -0.287}, {"measurement": "glycan array binding signal (z-score)", "setting": "[45]", "value": -0.285}, {"measurement": "glycan array binding signal (z-score)", "setting": "[46]", "value": -0.286}, {"measurement": "glycan array binding signal (z-score)", "setting": "[47]", "value": -0.286}, {"measurement": "glycan array binding signal (z-score)", "setting": "[48]", "value": -0.28}]}
